Out of some 310,000 compounds screened, about 14,000 (4.5%) showed an effect of 50% or more. Effects have a minus sign here. The list shows a part of the results.
target: human ether-à-go-go-related gene (hERG) potassium channel (human, UniProt Q12809); test: primary screen, population patch clamp on CHO cells stably expressing hERG
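Note: peak tail current of the secondary pulse compared with the same well before compound.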

human ether-à-go-go-related gene (hERG) potassium channel, sequence (Q12809 whole entry, looked up): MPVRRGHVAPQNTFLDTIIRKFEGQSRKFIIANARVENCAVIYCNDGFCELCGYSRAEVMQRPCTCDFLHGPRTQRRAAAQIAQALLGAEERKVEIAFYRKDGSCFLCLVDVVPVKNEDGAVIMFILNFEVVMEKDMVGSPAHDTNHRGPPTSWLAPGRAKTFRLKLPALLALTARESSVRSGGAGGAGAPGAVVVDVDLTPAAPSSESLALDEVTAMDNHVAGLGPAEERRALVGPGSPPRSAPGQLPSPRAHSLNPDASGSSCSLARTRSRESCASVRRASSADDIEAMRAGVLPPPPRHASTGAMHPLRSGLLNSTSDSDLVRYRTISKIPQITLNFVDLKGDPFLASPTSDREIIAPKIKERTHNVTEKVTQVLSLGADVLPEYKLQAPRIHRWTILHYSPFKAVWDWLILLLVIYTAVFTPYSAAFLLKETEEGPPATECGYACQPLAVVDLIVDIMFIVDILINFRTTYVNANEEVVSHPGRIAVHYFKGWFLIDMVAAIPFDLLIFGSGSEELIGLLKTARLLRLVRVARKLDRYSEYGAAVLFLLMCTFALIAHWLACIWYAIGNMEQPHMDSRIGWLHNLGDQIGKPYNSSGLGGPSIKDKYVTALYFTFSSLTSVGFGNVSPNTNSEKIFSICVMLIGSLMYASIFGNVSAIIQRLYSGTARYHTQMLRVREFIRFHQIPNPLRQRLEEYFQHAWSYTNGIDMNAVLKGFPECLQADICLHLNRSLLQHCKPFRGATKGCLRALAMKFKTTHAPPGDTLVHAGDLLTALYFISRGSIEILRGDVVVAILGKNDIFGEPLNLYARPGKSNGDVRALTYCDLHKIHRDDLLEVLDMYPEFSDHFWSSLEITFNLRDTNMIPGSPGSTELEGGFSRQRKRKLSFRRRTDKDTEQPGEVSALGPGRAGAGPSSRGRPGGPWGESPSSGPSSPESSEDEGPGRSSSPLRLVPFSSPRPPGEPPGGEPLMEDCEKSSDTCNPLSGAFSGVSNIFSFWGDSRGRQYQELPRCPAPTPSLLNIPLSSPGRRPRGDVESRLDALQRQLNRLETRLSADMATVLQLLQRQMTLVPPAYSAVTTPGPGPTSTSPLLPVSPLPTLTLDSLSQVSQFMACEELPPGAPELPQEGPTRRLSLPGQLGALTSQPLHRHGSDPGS

Structure (SMILES) | hERG current change (%, negative = inhibition) at 10uM
CCOC(=O)CCNC(=O)N1CCCC(N2CCN(c3ccc(OC)cc3)CC2)C1 (stereo not drawn) | 3.6%
COc1cccc(NC(=O)CN(C)C(=O)CCc2nc3sc4c(c3c(=O)[nH]2)CCCC4)c1 | 1.87%
CC(OC(=O)COc1ccc(Nc2ccccc2)cc1)C(=O)N(C)c1ccccc1 (stereo not drawn) | 24.6%
CCN(C(=O)Cc1cccs1)c1nnc(-c2cccnc2)s1 | -8.94%
Cc1ccc(NC(=O)CSc2nc3ccccc3c3nc(CCc4c(C)n[nH]c4C)nn23)cc1F | -11.7%
CCOc1ccc2nc(N3CCCC(C(=O)NCCCN4CCOCC4)C3)sc2c1 (stereo not drawn) | -19.6%
CCN(CCO)C(=S)Nc1cc(C(=O)OC)ccc1C(=O)OC | -18.2%
COc1ccc(NS(=O)(=O)c2cccc(C(=O)NCC3(N4CCCCC4)CCCCC3)c2)cc1 | -55.4%
CCCC(=O)NCCc1nc2ccccc2n1C | 17.4%
CC(C)n1ncc2c(C(=O)N3CCN(c4ccccc4)CC3)cc(-c3ccccc3)nc21 | 17.2%
CCn1c(=O)cc(OCC(=O)NCc2cccs2)c2ccccc21 | -8.89%
CCCOc1ccc(C2c3c(oc4cc(C)c(C)cc4c3=O)C(=O)N2CCCN(C)C)cc1 (stereo not drawn) | -8.22%
Cn1cc(/C=C(\NC(=O)c2ccccc2Cl)C(=O)NCCCN2CCOCC2)c2ccccc21 | 11%
CNc1c(N=Cc2cccnc2)c(=O)n(C)c(=O)n1C | 11.9%
CS(=O)(=O)N1CCC(C(=O)NCCC2=CCCCC2)CC1 | -4.99%
Cc1[nH]c2ccccc2c1C(=O)C(C)OC(=O)c1ccc(NC(=O)CC#N)cc1 (stereo not drawn) | -4.77%
CC(C)CNC(=O)c1c(N)n(/N=C/c2ccccn2)c2nc3ccccc3nc12 | 16.3%
CCCN(C(=O)CSc1nnc(-c2ccoc2C)n1N)C1CCS(=O)(=O)C1 (stereo not drawn) | 5.3%
O=C1CN(c2ccccc2)C(=S)N1C(=O)c1ccccc1 | 12.5%
CCCC1C(=O)N(c2ccccc2)C1c1ccccc1 (stereo not drawn) | 8.03%
O=C(CSc1nnnn1-c1cccc2c1CCCC2)N1CCCC1 | -28.1%
Cc1ccc(N2C(=O)c3cccc([N+](=O)[O-])c3C2=O)cc1C | 6.63%
CCOCCCNC(=O)/C(C#N)=C/c1cc(OC)c(O)c([N+](=O)[O-])c1 | 7.68%
O=C(CN1C(=O)S/C(=C\c2ccccc2F)C1=O)NCCCn1ccnc1 | -9.34%

From paper PMC4336329 (PLoS ONE, 2015)
